Test results: the RNAGym collection of RNA variant scans (doi:10.1073/pnas.2313332121)
This sample is rich in variants without activity.

B1: TPR 5TU (parent)
chain: GGAUCUUCUCGAUCUAACAAAAAAGACAAAUCUGCCACAAAGCUUGAGAGCAUCUUCGGAUGCAGAGGCGGCAGCCUUCGGUGGCGCGAUAGCGCCAACGUUCUCAACUAUGACACGCAAAACGCGUGCUCCGUUGAAUGGAGUUUAUCAUG

Variants of: B1
Test: polymerase ribozyme fitness, log enrichment relative to wild type (log ratio); higher = more active; in vitro selection for triplet polymerase activity
Outline: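 Mutant libraries were PCR-built and transcribed for each subunit of a heterodimeric triplet polymerase ribozyme and selected for one round in triplicate at −7 °C, frozen, before gel excision of extended constructs and streptavidin-bead capture. Input and output libraries were Illumina-sequenced, keeping genotypes with ≥10 input reads and ≥1 read per output. Fitness is a logarithmic ratio of genotype to wild-type enrichment, in base 2, using inverse-variance-weighted replicate averages.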

Variant | polymerase ribozyme fitness (log ratio)
U45A A47C G58A C85U C95U C123A | ≤ -4.2
U45A A47C U56C A107U U146C | ≤ -4.2
U45A A49C A52G U77G G94A U139A | ≤ -4.2
U45A A49C C51G G74U G81A G133A | ≤ -4.2
U45A A49C C87A | ≤ -4.2
U45A A49U | ≤ -4.2
U45A A52C C57A | ≤ -4.2
U45A A52G A64G C69G C75G A121U | ≤ -4.2
U45A A52G U82G A115G G136U G141A U151G | ≤ -4.2
U45A A60C C93A | ≤ -4.2
U45A A64C C93A | ≤ -4.2
U45A A115C | ≤ -4.2
U45A A121G C131G G140U | ≤ -4.2
U45A C54A C95A A113G C129A | ≤ -4.2
U45A C54A G94C A110G G141U | ≤ -4.2
U45A C54U C95G A107G | ≤ -4.2
U45A C54U G92U G100C A110G G128U U151G | ≤ -4.2
U45A C69A C95U C99G G112U C114U A147U | ≤ -4.2
U45A C72U | ≤ -4.2
U45A C75U U77G | ≤ -4.2
U45A C79G A89U G92U G100A | ≤ -4.2

Variant | polymerase ribozyme fitness (log ratio)
U45A C79G G84A G92U C108G | ≤ -4.2
U45A C85A C93U C96U C118A C132A | ≤ -4.2
U45A C93U A147U | -2.81
U45A C96A | -2.56
U45A C96G A113C | ≤ -4.2
U45A C99G G124U | ≤ -4.2
U45A C116U | -2.44
U45A G46A U55C A66G U77G U82A C103G U135C U145C | ≤ -4.2
U45A G48C G59U G62U G84A A91U A97U C108U C114A G136C | ≤ -4.2
U45A G50A U55A G68U C85G C118A U135G | ≤ -4.2
U45A G50C U53A C54G G83C C114A U127G C131U U134G | ≤ -4.2
U45A G50U A106G | ≤ -4.2
U45A G50U G83U C87U C103U C105A | ≤ -4.2
U45A G58A G59C A60G G133A | ≤ -4.2
U45A G59C G70C C87U | ≤ -4.2
U45A G65C A73G G84A A142G | ≤ -4.2
U45A G68A C85G U90A G143U | ≤ -4.2
U45A G68U C85G U104G A137U A142C | ≤ -4.2
U45A G71A G94C | ≤ -4.2
U45A G83A C87G G140C | ≤ -4.2
U45A G83C C99U G112A U130A | ≤ -4.2

Variant | polymerase ribozyme fitness (log ratio)
U45A G83U C85G C95U | ≤ -4.2
U45A G86C C116U A147C | ≤ -4.2
U45A G92C A97G C99G U145G | ≤ -4.2
U45A G92C U111A | ≤ -4.2
U45A G92C U144A | -3.41
U45A G92U U101G G136A | ≤ -4.2
U45A G100C C118A | ≤ -4.2
U45A U55G C87G G117A | ≤ -4.2
U45A U55G U56G C87U G92C | -3.98
U45A U61A U82A | ≤ -4.2
U45A U77A C87U U90G G92C G126A A138G | ≤ -4.2
U45A U77G G83C U146A | ≤ -4.2
U45A U82G G84U C87G C95A | ≤ -4.2
U45C A47G A49U C79G U90A C95G | ≤ -4.2
U45C A49C G70C G83C A137C U144C | ≤ -4.2
U45C C51G C63G A66U G68U A91G G100U C108G C116U | ≤ -4.2
U45C C57G G59U A66U G94A | ≤ -4.2
U45C C93A | -3.52
U45C C114G G141C | ≤ -4.2
U45C G58U U82C G84A | ≤ -4.2
U45C G62C A66C U82C C132A G140C | ≤ -4.2

Variant | polymerase ribozyme fitness (log ratio)
U45C G70C A91G C99U G136C | ≤ -4.2
U45C U56A A91G U111A | ≤ -4.2
U45G A47G C54U C93G | ≤ -4.2
U45G A49C C85A | ≤ -4.2
U45G A49U A60U C85G C103U C116U A121U | ≤ -4.2
U45G A52G U82C U101G C131U | -3.32
U45G A64C U148G | ≤ -4.2
U45G A66C C76G A91G | ≤ -4.2
U45G A73G C76G A89U C93U C114G | ≤ -4.2
U45G A73U G83U G126C U134G | ≤ -4.2
U45G A110G C118U G124A | ≤ -4.2
U45G C54A U55A C85G G133U | ≤ -4.2
U45G C54U A110G | ≤ -4.2
U45G C85G | -3.44
U45G G46A C75A G86U U144G | ≤ -4.2
U45G G46U A47C G88C G133A | ≤ -4.2
U45G G50A C93G C96U C114U A120U U135G | ≤ -4.2
U45G G59C C99A U151G | ≤ -4.2
U45G G59U A91U C93A U135A | ≤ -4.2
U45G G68U | ≤ -4.2
U45G G83C G128U C132G A147C | ≤ -4.2
